The results in this text go back to patent publication US9695132B2, “Heteroaryl compounds and uses thereof” (Celgene CAR LLC, priority 2013, dated 2017).

For this assay, the target named is FGFR4 (Homo sapiens (Human), UniProt P22455). The experiment in a line: Protein mass modification assay (MALDI, intact FGFR4). It is filed as binding. Conditions: method a: FGFR4 intact protein from SignalChem; 10-fold excess of compound, 60 min.

The structures appear in SMILES notation.

Take `C=CC(=O)Nc1ccccc1CNc1ncc2c(n1)N(Cc1cccc(NC(=O)CC)c1)C(=O)N(c1c(Cl)c(OC)cc(OC)c1Cl)C2` [Compound I-180]: the “MS FGFR4 (mass modification)” value is recorded as “F (mass modification of 31-69%)”. Next, `C=CC(=O)NCc1ccccc1Nc1ncc2c(n1)N(C)C(=O)N(c1c(Cl)c(OC)cc(OC)c1Cl)C2` [Compound I-181]: “E (mass modification of ≧70%)”.

On to `C=CC(=O)Nc1ccc(Nc2ncc3c(n2)N(Cc2cccc(NC(=O)CC)c2)C(=O)N(c2c(Cl)c(OC)cc(OC)c2Cl)C3)cc1` [Compound I-233], for which the “MS FGFR4 (mass modification)” value is “G (mass modification ≦30%)”. To `CCC(=O)Nc1ccccc1Nc1ncc2c(n1)N(Cc1ccccc1)C(=O)N(c1c(Cl)c(OC)cc(OC)c1Cl)C2` [Compound I-236] belongs “G (mass modification ≦30%)”; to `COc1cc(OC)cc(N2Cc3cnc(Nc4ccccc4)nc3N(C)C2=O)c1` [Compound I-237], “G (mass modification ≦30%)”. Next, `COc1cc(OC)c(Cl)c(N2Cc3cnc(Nc4ccccc4)nc3N(C)C2=O)c1Cl` [Compound I-238]: “G (mass modification ≦30%)”.
